The source gives many values for each of these; only a part stands here.
How the values were obtained:
Assay in all cases: concentration in plasma after dosing
Rat [1] = conditions: dosed: Methyleugenol, 150 mg/kg, oral, Female, F344/N
Rat [2] = conditions: dosed: Methyleugenol, 75 mg/kg, oral, Male, F344/N
Rat [3] = conditions: dosed: Methyleugenol, 75 mg/kg, oral, Male, F344/N; remark: listed apart in the source
Rat [4] = conditions: 5 min; dosed: Methyleugenol; 37 mg/kg; oral; Male; F344
Rat [5] = conditions: dosed: Methyleugenol, 75 mg/kg, oral, Male, F344
Rat [6] = conditions: dosed: Methyleugenol, 37 mg/kg, oral, Female, F344/N
Rat [7] = conditions: dosed: Methyleugenol, 150 mg/kg, oral, Male, F344/N
Rat [8] = conditions: dosed: Methyleugenol, 75 mg/kg, oral, Female, F344/N
Rat [9] = conditions: dosed: Methyleugenol, 75 mg/kg, oral, Male, F344/N; remark: listed apart in the source
Rat [10] = conditions: dosed: Methyleugenol, 75 mg/kg, oral, Male, F344; remark: listed apart in the source
Rat [11] = conditions: dosed: Methyleugenol, 150 mg/kg, oral, Male, F344/N; remark: listed apart in the source
Rat [12] = conditions: 0.25 h; dosed: Methyleugenol; 37 mg/kg; oral; Female; F344
Rat [13] = conditions: dosed: Methyleugenol, 37 mg/kg, oral, Female, F344/N; remark: listed apart in the source
Rat [14] = conditions: dosed: Methyleugenol, 75 mg/kg, oral, Male, F344; remark: listed apart in the source
Rat [15] = conditions: 5 min; dosed: Methyleugenol; 37 mg/kg; oral; Female; F344
Rat [16] = conditions: dosed: Methyleugenol, 75 mg/kg, oral, Female, F344
Rat [17] = conditions: dosed: Methyleugenol, 150 mg/kg, oral, Female, F344/N; remark: listed apart in the source
Rat [18] = conditions: dosed: Methyleugenol, 75 mg/kg, oral, Female, F344/N; remark: listed apart in the source
Rat [19] = conditions: dosed: Methyleugenol, 150 mg/kg, oral, Female, F344/N; remark: listed apart in the source
Rat [20] = conditions: 5 min; dosed: Methyleugenol; 37 mg/kg; oral; Female; F344; remark: listed apart in the source
Rat [21] = conditions: 1.5 h; dosed: Methyleugenol; 37 mg/kg; oral; Female; F344/N
Rat [22] = conditions: dosed: Methyleugenol, 75 mg/kg, oral, Female, F344; remark: listed apart in the source
Rat [23] = conditions: dosed: Methyleugenol, 75 mg/kg, oral, Male, F344/N; remark: listed apart in the source
Rat [24] = conditions: dosed: Methyleugenol, 150 mg/kg, oral, Male, F344
Rat [25] = conditions: dosed: Methyleugenol, 150 mg/kg, oral, Female, F344/N; remark: listed apart in the source
Rat [26] = conditions: dosed: Methyleugenol, 150 mg/kg, oral, Female, F344/N; remark: listed apart in the source
Rat [27] = conditions: dosed: Methyleugenol, 75 mg/kg, oral, Female, F344; remark: listed apart in the source
Rat [28] = conditions: dosed: Methyleugenol, 75 mg/kg, oral, Male, F344/N; remark: listed apart in the source
Rat [29] = conditions: 1 h; dosed: Methyleugenol; 37 mg/kg; oral; Female; F344
Rat [30] = conditions: dosed: Methyleugenol, 150 mg/kg, oral, Male, F344; remark: listed apart in the source
Rat [31] = conditions: dosed: Methyleugenol, 75 mg/kg, oral, Male, F344/N; remark: listed apart in the source
Rat [32] = conditions: dosed: Methyleugenol, 150 mg/kg, oral, Female, F344
Rat [33] = conditions: dosed: Methyleugenol, 75 mg/kg, oral, Male, F344/N; remark: listed apart in the source
Rat [34] = conditions: dosed: Methyleugenol, 150 mg/kg, oral, Male, F344/N; remark: listed apart in the source
Rat [35] = conditions: dosed: Methyleugenol, 37 mg/kg, oral, Female, F344/N; remark: listed apart in the source
Rat [36] = conditions: dosed: Methyleugenol, 75 mg/kg, oral, Female, F344/N; remark: listed apart in the source

C=CCc1ccc(OC)c(OC)c1 [Methyleugenol]
Conditions | concentration in plasma [ng/mL]
Rat [1], 3 h | 1100
Rat [1], 5 min | 3500
Rat [2], 2 min | 310
Rat [2], 6 h | 117
Rat [3], 1.5 h | 262
Rat [3], 4 h | 220
Rat [5], 1 h | 1350
Rat [5], 2 h | 364
Rat [6], 1 h | 43.8
Rat [6], 3 h | 20.7
Rat [7], 1.5 h | 549
Rat [7], 3 h | 952
Rat [8], 1.5 h | 349
Rat [8], 5 h | 74.8
Rat [9], 3 h | 60.1
Rat [9], 20 min | 1360
Rat [10], 0.25 h | 1850
Rat [10], 4 h | 80
Rat [11], 2 h | 587
Rat [11], 4 h | 805
Rat [13], 1.5 h | 32.8
Rat [13], 3 h | 25.4
Rat [14], 5 min | 1880
Rat [14], 6 h | 64
Rat [16], 0.25 h | 1590
Rat [16], 4 h | 55
Rat [17], 1 h | 543
Rat [17], 8 h | 571
Rat [18], 0.5 h | 270
Rat [18], 5 h | 182
Rat [19], 2 h | 372
Rat [19], 12 h | 21.6
Rat [22], 0.25 h | 1160
Rat [22], 4 h | 157
Rat [23], 2 h | 112
Rat [23], 20 min | 193
Rat [24], 0.5 h | 2730
Rat [24], 1.5 h | 1080
Rat [25], 3 h | 664
Rat [25], 10 min | 2300
Rat [26], 0.25 h | 2080
Rat [26], 6 h | 510
Rat [27], 1 h | 959
Rat [27], 2 h | 191
Rat [28], 3 h | 116
Rat [28], 10 min | 747
Rat [30], 5 min | 3350
Rat [30], 6 h | 755
Rat [31], 0.5 h | 766
Rat [31], 6 h | 185
Rat [32], 0.25 h | 1080
Rat [32], 4 h | 880
Rat [33], 1 h | 147
Rat [33], 8 h | 52.9
Rat [34], 0.5 h | 822
Rat [34], 3 h | 800
Rat [35], 1 h | 28.7
Rat [35], 4 h | 25.4
Rat [36], 1 h | 151
Rat [36], 12 h | 7.73

Conditions | concentration in plasma [ng/mL]
Rat [4] | 820
Rat [12] | 475
Rat [15] | 1370
Rat [20] | 578
Rat [21] | 69.4
Rat [29] | 227
